Among all 310,000 compounds or so, about 2,200 (0.71%) showed an effect of 50% or more. Effects have a minus sign here. The list shows a part of the results.
Each compound was assayed against human ether-à-go-go-related gene (hERG) potassium channel (human, UniProt Q12809) (assay: primary screen, population patch clamp on CHO cells stably expressing hERG).
Chain of human ether-à-go-go-related gene (hERG) potassium channel (Q12809 whole entry, looked up): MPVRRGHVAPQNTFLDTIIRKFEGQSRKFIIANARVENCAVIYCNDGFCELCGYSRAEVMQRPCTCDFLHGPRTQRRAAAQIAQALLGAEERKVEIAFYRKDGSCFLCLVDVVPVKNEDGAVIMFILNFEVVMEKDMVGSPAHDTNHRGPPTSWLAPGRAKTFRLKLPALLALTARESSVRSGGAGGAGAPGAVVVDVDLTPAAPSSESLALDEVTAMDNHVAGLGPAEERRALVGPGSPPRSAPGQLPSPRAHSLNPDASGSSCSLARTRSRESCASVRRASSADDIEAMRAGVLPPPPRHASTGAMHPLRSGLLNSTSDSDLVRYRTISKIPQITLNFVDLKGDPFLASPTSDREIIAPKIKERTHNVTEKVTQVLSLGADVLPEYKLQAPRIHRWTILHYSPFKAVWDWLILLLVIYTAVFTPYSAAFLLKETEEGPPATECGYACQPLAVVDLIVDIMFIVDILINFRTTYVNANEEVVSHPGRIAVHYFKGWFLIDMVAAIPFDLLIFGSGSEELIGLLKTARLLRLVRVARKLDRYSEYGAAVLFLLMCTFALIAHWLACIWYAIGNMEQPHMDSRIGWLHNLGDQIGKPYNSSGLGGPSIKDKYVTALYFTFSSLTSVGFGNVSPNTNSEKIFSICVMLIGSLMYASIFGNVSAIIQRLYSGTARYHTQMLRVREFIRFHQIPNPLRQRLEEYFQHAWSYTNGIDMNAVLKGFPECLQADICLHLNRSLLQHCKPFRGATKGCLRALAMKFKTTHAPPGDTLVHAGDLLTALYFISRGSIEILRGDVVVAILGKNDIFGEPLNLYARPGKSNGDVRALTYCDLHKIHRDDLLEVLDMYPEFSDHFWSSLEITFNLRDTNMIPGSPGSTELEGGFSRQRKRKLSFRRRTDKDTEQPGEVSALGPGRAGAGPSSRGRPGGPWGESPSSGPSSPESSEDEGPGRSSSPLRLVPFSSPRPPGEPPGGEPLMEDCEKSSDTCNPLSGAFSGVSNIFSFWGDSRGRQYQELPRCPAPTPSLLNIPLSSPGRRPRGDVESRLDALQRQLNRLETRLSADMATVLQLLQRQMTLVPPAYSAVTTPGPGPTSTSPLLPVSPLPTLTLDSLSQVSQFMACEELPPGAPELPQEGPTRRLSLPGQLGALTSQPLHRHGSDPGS

Going from `CC(C)(C)c1ccc(C(=O)Oc2ccccc2CCC(=O)O)cc1` to `CCOc1ccccc1C(=O)Nc1ccccc1O`, the “hERG current change (%, negative = inhibition) at 1uM” value falls from 15.7% to 12.9%.

First: COc1cccc(NC(=O)Cn2cnc3c(oc4nc5c(cc43)CCCC5)c2=O)c1
Second: COc1cccc(-c2nn(-c3ccc(C)cc3)cc2C(=O)N(C)CC(=O)Nc2cccc(F)c2)c1
The “hERG current change (%, negative = inhibition) at 1uM” value of the first is lower: 5% for the first, 5.25% for the second.

Going from `COC(=O)c1ccccc1NC(=O)CN1CCCCCC1` to `NC(=O)C1(N2CCCCC2)CCN(C(=O)c2ccccc2)CC1`, the “hERG current change (%, negative = inhibition) at 1uM” value falls from 16.5% to 5.81%.

Going from `Cc1ccc(Nc2cc(=O)[nH]c(=O)[nH]2)cc1Cl` to `CC(=O)Nc1nc(C)c(Oc2ccc(Cl)cc2Cl)c(=O)[nH]1`, the “hERG current change (%, negative = inhibition) at 1uM” value rises from 5.1% to 11.4%.

First: COc1ccc(/C=c2/sc3n(c2=O)C(c2ccccc2OC)C2=C(N=3)c3ccccc3CC2)cc1O (stereo not shown)
Second: COc1ccc(CCN2C(=O)CSC2c2cccc([N+](=O)[O-])c2)cc1OC (stereo not shown)
The “hERG current change (%, negative = inhibition) at 1uM” value of the first is lower: 6.5% for the first, 11.4% for the second.

Going from `Cn1c(SCc2ccccc2)nnc1-c1c[nH]c2ccccc12` to `Cl.Oc1ccccc1CNCc1ccccc1`, the “hERG current change (%, negative = inhibition) at 1uM” value falls from 14.8% to 11.3%.

Compared with `CCCN1CCN(C(=O)CCCNC(=O)c2ccc(Cl)cc2)CC1`, `CC(C)c1ccc(NC2CCCN(C(=O)CCN3CCOCC3)C2)cc1` (stereo not shown) is higher in “hERG current change (%, negative = inhibition) at 1uM” value: 4.33% for the first, 16.8% for the second.

First: Cc1c(C)c2ccc(OCC(=O)N3C[C@H]4C[C@@H](C3)c3cccc(=O)n3C4)cc2oc1=O
Second: COc1ccc([C@H]2CC(=O)C=C(c3c(C)cc(C)cc3C)C2)cc1
The “hERG current change (%, negative = inhibition) at 1uM” value of the first is lower: 10.7% for the first, 11.6% for the second.

First: O=c1c(C/C=C/c2ccccc2)c(O)ccn1Cc1cccc(Cl)c1
Second: CN(Cc1ccccc1)C(=O)C1CCCN(Cc2cccc(Cl)c2)C1.O=C(O)C(=O)O (stereo not shown)
The “hERG current change (%, negative = inhibition) at 1uM” value of the first is lower: 10.4% for the first, 11.7% for the second.

Going from `COc1ccc(NC(=O)CCNS(=O)(=O)c2ccc3c(c2)c(=O)n(C)c(=O)n3C)cc1OC` to `CCOc1ccc(C(=O)Nc2cc(OC)ccc2OC)cc1`, the “hERG current change (%, negative = inhibition) at 1uM” value falls from 16% to 6.29%.

First: Cc1cc(C)c2oc(C(=O)N(Cc3ccc(F)cc3)C3CCS(=O)(=O)C3)cc(=O)c2c1 (stereo not shown)
Second: COc1ccc2cc(CN(CCO)C(=O)c3ccccc3F)c(=O)[nH]c2c1
The “hERG current change (%, negative = inhibition) at 1uM” value of the first is higher: 9.61% for the first, 8.12% for the second.

First: CC1(C)CC(=O)C(CC2C(=O)CC(C)(C)CC2=O)C(=O)C1
Second: Cc1c(C(=O)N2CCN(Cc3ccccc3)CC2)oc2c1C(=O)CC(C)(C)C2
The “hERG current change (%, negative = inhibition) at 1uM” value of the first is lower: 12.1% for the first, 15.7% for the second.

Going from `COc1cc(NC(=O)C/C(C)=N/NC(=O)C(=O)NC2CCCCC2)c(OC)cc1Cl` to `COc1ccc(-c2nnn(CC(=O)N(CC(=O)NC3CCCC3)c3ccccc3)n2)cc1OC`, the “hERG current change (%, negative = inhibition) at 1uM” value rises from -66.8% to -5.84%.

First: CCc1c(C(=O)Nc2ccncc2)csc1C
Second: CC(=O)Nc1ccccc1OCc1cnc(Cl)s1
The “hERG current change (%, negative = inhibition) at 1uM” value of the first is lower: -1.35% for the first, 11.9% for the second.

First: O=c1cc(-c2ccc([N+](=O)[O-])cc2)nc2cc(-c3ccc(Cl)cc3)[nH]n12
Second: COc1ccc([N+](=O)[O-])cc1NC(=O)c1ccc(N2C(=O)CCC2=O)cc1
The “hERG current change (%, negative = inhibition) at 1uM” value of the first is higher: 14.4% for the first, 12.9% for the second.

Going from `C=CCCO[C@@H]1O[C@@H](C)[C@H](O)C[C@H]1O` to `C=CCn1c(NCc2ccccc2O)nc2ccccc21`, the “hERG current change (%, negative = inhibition) at 1uM” value rises from 12.5% to 13.5%.

First: Cc1onc(-c2c(Cl)cccc2Cl)c1C(=O)c1c[nH]c(C(=O)NC2CC2)c1
Second: O=C(CN(Cc1ccccc1Cl)C(=O)c1csnn1)NC1CCCC1
The “hERG current change (%, negative = inhibition) at 1uM” value of the first is higher: 14.9% for the first, -5.99% for the second.

Compared with `COc1cc(CNCCN2CCOCC2)ccc1OCc1ccccc1Cl.Cl`, `COc1ccc(/C=C(\NC(=O)c2ccco2)C(=O)N2CCOCC2)cc1` is higher in “hERG current change (%, negative = inhibition) at 1uM” value: -0.385% for the first, 12.3% for the second.

Going from `CCn1c(SCC(=O)NCc2cccs2)nnc1-c1cccs1` to `O=C(CSc1nncn1-c1ccccc1)Nc1cc(F)ccc1F`, the “hERG current change (%, negative = inhibition) at 1uM” value rises from -6.66% to 22.7%.

Going from `CCN(CC)c1ccc(/C=C2/C(=O)NC(=O)N(CC3CCCO3)C2=O)cc1` (stereo not shown) to `CN1C(=O)c2cccc3c(S(=O)(=O)N4CCCC4C(=O)O)ccc1c23` (stereo not shown), the “hERG current change (%, negative = inhibition) at 1uM” value rises from 4.4% to 14.7%.

Compared with `COC(=O)c1c(NC(=O)C(C)(C)C)sc2c1CCN(Cc1ccccc1)C2.Cl`, `O=C(Cc1ccc(Cl)cc1)Nc1ccccc1N1CCN(C(=O)c2ccccc2)CC1` is lower in “hERG current change (%, negative = inhibition) at 1uM” value: -3.68% for the first, -18.5% for the second.

Compared with `CC(C)(C)C(=O)NC(=S)Nc1ccc(C(F)(F)F)cc1`, `CC(=O)c1cccc(Nc2cc(C)nc3c(C)cccc23)c1.Cl` is lower in “hERG current change (%, negative = inhibition) at 1uM” value: 15.3% for the first, -16.9% for the second.

Compared with `CCC(NS(=O)(=O)c1ccc2c(c1)Cc1cc(S(=O)(=O)NC(CC)C(=O)O)ccc1-2)C(=O)O` (stereo not shown), `O=C(CCN1C(=O)/C(=C\c2ccco2)SC1=S)Nc1ccc(C(=O)O)c(O)c1` is lower in “hERG current change (%, negative = inhibition) at 1uM” value: 17.7% for the first, 10.1% for the second.

Compared with `Cc1sc2nc(CN3CCCC3)nc(N3CCN(S(=O)(=O)c4cccs4)CC3)c2c1C`, `N#Cc1ccccc1S(=O)(=O)N1CCN(C(=O)CCC2CCCC2)CC1` is higher in “hERG current change (%, negative = inhibition) at 1uM” value: -65.2% for the first, 7.68% for the second.

First: Cl.OCCCN1CCN(CCCOc2ccccc2-c2ccccc2)CC1
Second: Cc1cc(NC(=S)N(CCCN2CCN(C)CC2)Cc2ccco2)ccc1Cl
The “hERG current change (%, negative = inhibition) at 1uM” value of the first is lower: -57.7% for the first, -11.7% for the second.

Going from `COc1ccc(-c2nnc(NC(=O)c3ccccc3C)o2)cc1` to `COc1cccc(/C=N/NC(=O)CNC(=O)C(c2ccccc2)c2ccccc2)c1O`, the “hERG current change (%, negative = inhibition) at 1uM” value rises from 12.2% to 20.3%.

Going from `CCCc1ccc(-c2cc(N)n[nH]2)cc1` to `O=C(CCC1CCCCC1)N1CCN(Cc2ccc3c(c2)OCO3)CC1`, the “hERG current change (%, negative = inhibition) at 1uM” value falls from 18.3% to -7.06%.

With `O=C(COc1cc2oc(=O)c3c(c2cc1Cl)CCCC3)NCC1CCC(C(=O)O)CC1` (stereo not shown) the “hERG current change (%, negative = inhibition) at 1uM” value was 14.7%.

Reference: article PMC4336329 (PLoS ONE, 2015)
